# According to PubChem BioAssay AID504333 (National Center for Advancing Translational Sciences (NCATS), 2011):
# The campaign covered roughly 360,000 compounds. About 16,000 (4.4%) were called active. The inconclusive results got no clear call from the source; some entries with a clear call stand among them for comparison. Calls follow the shape of the dose curve; as a rule, active = well fitted inhibition curve with a large enough effect; inconclusive = small, poorly fitted or top-dose-only effect; inactive = no such curve, though single readings can be large or run the other way. Potencies beside an inconclusive call are fits to weak or partial responses and may not hold up.
# Biological target: Bromodomain adjacent to zinc finger domain protein 2B (Homo sapiens) (UniProt Q9UIF8)
# Test: qHTS Assay for Inhibitors of BAZ2B; also: nearly all actives have a fitted effect of over 60% in size
# Details: AlphaScreen BAZ2B-H3K14Ac peptide displacement; series mostly up to 114 µM
# Method in brief: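 Compounds, titrated to a top concentration of 110 uM, were incubated 30 min at room temperature with preformed BAZ2B/acetyl-K14 H3 peptide complex (50 nM each). Proximity signal was measured by AlphaScreen after 20 min with beads.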
# Potency is read from the fitted curve at half-maximal effect; tags tell the direction and shape of the fitted curve.
# Chain of UniProt Q9UIF8 (Q9UIF8 whole entry, looked up, the tested form may be a part): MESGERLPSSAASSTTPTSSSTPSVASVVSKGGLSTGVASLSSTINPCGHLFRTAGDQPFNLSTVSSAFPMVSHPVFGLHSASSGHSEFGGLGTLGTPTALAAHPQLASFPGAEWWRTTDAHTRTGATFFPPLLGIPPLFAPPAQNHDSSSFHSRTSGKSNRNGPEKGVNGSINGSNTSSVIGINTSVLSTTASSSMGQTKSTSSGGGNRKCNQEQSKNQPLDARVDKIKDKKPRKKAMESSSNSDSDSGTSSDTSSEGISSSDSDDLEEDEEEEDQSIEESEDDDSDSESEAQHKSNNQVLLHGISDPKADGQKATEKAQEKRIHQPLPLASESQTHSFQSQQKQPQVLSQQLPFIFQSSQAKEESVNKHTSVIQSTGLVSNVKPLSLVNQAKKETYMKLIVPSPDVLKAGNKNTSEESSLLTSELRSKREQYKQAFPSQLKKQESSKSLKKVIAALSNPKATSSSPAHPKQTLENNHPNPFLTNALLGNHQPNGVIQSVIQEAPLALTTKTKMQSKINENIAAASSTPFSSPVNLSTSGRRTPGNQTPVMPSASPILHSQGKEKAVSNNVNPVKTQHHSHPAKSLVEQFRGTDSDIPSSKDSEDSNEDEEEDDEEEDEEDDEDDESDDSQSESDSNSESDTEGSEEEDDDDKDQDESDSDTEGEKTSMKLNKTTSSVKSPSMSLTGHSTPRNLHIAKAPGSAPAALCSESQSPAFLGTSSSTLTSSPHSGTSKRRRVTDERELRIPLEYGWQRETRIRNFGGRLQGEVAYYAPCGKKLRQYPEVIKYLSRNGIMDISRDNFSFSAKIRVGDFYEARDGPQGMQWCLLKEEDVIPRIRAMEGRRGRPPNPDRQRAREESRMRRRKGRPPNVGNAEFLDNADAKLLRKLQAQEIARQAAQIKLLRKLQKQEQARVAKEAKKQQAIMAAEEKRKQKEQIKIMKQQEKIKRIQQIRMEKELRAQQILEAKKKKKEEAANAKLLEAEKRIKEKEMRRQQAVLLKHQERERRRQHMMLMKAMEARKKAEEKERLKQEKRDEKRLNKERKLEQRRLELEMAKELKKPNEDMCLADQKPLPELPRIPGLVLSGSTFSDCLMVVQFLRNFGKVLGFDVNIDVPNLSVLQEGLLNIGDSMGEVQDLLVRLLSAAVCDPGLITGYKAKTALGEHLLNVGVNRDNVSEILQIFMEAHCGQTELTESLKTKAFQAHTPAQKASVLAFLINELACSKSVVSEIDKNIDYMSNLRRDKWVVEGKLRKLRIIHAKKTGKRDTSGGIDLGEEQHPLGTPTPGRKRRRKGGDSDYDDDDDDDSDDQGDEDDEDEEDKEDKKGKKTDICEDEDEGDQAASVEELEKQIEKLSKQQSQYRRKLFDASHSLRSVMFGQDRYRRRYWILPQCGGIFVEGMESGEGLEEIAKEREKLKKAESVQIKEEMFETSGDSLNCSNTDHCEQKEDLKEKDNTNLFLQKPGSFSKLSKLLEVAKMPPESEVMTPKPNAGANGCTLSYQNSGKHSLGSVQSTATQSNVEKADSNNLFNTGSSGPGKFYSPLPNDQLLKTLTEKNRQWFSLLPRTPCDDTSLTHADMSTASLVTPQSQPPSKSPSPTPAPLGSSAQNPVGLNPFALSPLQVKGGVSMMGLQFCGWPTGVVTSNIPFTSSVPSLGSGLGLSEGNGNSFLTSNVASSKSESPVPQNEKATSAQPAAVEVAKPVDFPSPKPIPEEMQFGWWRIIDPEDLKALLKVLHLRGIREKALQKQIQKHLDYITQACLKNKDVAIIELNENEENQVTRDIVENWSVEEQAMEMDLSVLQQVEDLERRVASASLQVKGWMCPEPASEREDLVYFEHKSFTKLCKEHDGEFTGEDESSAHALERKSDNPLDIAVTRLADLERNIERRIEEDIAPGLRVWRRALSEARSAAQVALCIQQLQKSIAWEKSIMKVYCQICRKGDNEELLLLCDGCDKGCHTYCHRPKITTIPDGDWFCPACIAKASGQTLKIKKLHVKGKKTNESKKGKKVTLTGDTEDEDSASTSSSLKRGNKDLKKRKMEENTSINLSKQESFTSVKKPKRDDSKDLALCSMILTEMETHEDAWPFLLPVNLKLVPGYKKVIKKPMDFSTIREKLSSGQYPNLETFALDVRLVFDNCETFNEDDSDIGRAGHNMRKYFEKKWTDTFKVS
row,SMILES,Potency
1,CN1CCN(Cc2oc(CO)cc(=O)c2O)CC1,"inconclusive: 89.1 µM [inhibitor, single point]"
2,CC1=NS(=O)(=O)c2cc(Cl)ccc2N1,inactive
3,Cc1ccc(S(=O)(=O)N2CCCC2C(=O)Nc2nc3c(s2)CCCC3)cc1 (configuration not stated),"inconclusive: 79.4 µM [inhibitor, single point]"
4,Cc1cc(C)nc(NCC(O)CNc2ccccc2Cl)n1 (configuration not stated),inactive
5,Cc1nccn1C[C@@H]1CCc2c(c3ccccc3n2C)C1=O,"inconclusive: 70.8 µM [inhibitor, partial curve, poor fit]"
6,CCOc1ccc(/C=C2\SC(=O)N(c3ccc(O)cc3)C2=O)cc1OC,inactive
7,O=C(C1CCCN(S(=O)(=O)c2cccc3nonc23)C1)N1CCN(c2ccccc2)CC1 (configuration not stated),"inconclusive: 89.1 µM [inhibitor, single point]"
8,COc1ccc2c(c1)c1c(c(=O)n(-c3cc(Cl)ccc3C)c(=O)n1Cc1ccc(F)cc1)n2C,inactive
9,Cc1cc(C)cc(Nc2ccc(C(=O)O)cc2[N+](=O)[O-])c1,"inconclusive: 50.1 µM [inhibitor, partial curve]"
10,Cc1ccc(NC(=O)N2CCC(NC(=O)c3cccc(C)c3)CC2)cc1,active: 50.1 µM
11,CC(=O)NC(c1ccco1)c1ccc2cccnc2c1O (configuration not stated),active: 20 µM
12,CCCn1c(=N)c(C(=O)NC(C)c2ccccc2)cc2c(=O)n3ccccc3nc21 (configuration not stated),inactive
13,O=[N+]([O-])c1cc([N+](=O)[O-])c2cc3ccccc3nc2c1,"inconclusive: 89.1 µM [inhibitor, single point]"
14,CCOc1ccc(C(C)=O)cc1COc1ccc(-c2nnco2)cc1,active: 50.1 µM
15,CN(C)c1ccc(N/C=C/C(=O)C(C)(C)C)cc1,active: 39.8 µM
16,Cc1cc(C)cc(NC(=O)c2ccc(S(=O)(=O)C(F)F)cc2)c1,inactive
17,Cc1ccc(N(Cc2ccc([N+](=O)[O-])cc2)C(=O)c2ccco2)cc1,"inconclusive: 89.1 µM [inhibitor, single point]"
18,Cc1ccc(NS(=O)(=O)c2sc3ccc(Cl)cc3c2C)cc1,"inconclusive: 89.1 µM [inhibitor, single point]"
19,CC1(C)CN(c2ccsc2C(=O)O)C1=O,"inconclusive: 89.1 µM [inhibitor, single point]"
20,O=C(NCCCNCCCNC(=O)c1ccccn1)c1ccccn1,inactive
21,Cc1nn(C)c(C(=O)N/N=C/c2cc3c(cc2Br)OCO3)c1Br,inactive
22,CCOC(=O)C1=C(CSc2nc(CC)c(C)cc2C#N)OC(N)=C(C#N)C1c1ccccc1 (configuration not stated),"inconclusive: 3.55 µM [inhibitor, full curve]"
